{"source": "the supplement of paper PMC6135742", "note": "Counter-ions that a name gives are not always drawn. ± gives the standard deviation of the averaged measurements. Over roughly 2,600 compounds, “MBP+ mature oligodendrocyte number relative to DMSO vehicle control” has its median near -0.34; the highest 2% begin near 13. The list shows a part of the results.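 Further: 10 µM single dose with 3-day oligodendrocyte differentiation.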", "data": [{"test_system": "jimpy (Plp1 jimpy) mouse iPSC-derived oligodendrocyte progenitor cells", "experiment": "MBP+ mature oligodendrocyte number relative to DMSO vehicle control (SDs above negative control mean); higher = more surviving jimpy oligodendrocytes (rescue)", "settings": "10 µM; 3 days", "values": [{"smiles": "CN(C)CC(=O)Nc1ccc2[nH]c(=O)c3ccccc3c2c1", "MBP+ mature oligodendrocyte number": -1.25}, {"smiles": "COc1ccc2c(c1OC)C(=O)O[C@@H]2[C@H]1c2c(cc3c(c2OC)OCO3)CCN1C", "note": "[Noscapine hydrchloride]", "MBP+ mature oligodendrocyte number": -0.0882}, {"smiles": "O=C(O)c1cc(/N=N/c2ccc(O)c(C(=O)O)c2)ccc1O", "note": "[Olsalazine Sodium]", "MBP+ mature oligodendrocyte number": -0.354}, {"smiles": "CCCCCCCCCCCCCCCC(=O)OC(CC(=O)O)C[N+](C)(C)C", "note": "(racemic) [Palmitoyl-DL-Carnitine chloride]", "MBP+ mature oligodendrocyte number": 0.304}, {"smiles": "O=C(Nc1ccccc1-c1cn2c(CN3CCNCC3)csc2n1)c1cnc2ccccc2n1", "MBP+ mature oligodendrocyte number": "< -6.7"}, {"smiles": "CN(C)CCCN1c2ccccc2Sc2ccccc21", "note": "[Promazine hydrochloride]", "MBP+ mature oligodendrocyte number": -3.28}, {"smiles": "Cc1cc(C(C)(C)C)c(O)c(C)c1CC1=NCCN1", "note": "[Oxymetazoline hydrochloride]", "MBP+ mature oligodendrocyte number": -1.54}, {"smiles": "Cc1cc(C(C)(C)C)c(O)c(C)c1CC1=NCCN1", "note": "[Oxymetazoline HCl]", "MBP+ mature oligodendrocyte number": -0.332}, {"smiles": "O=C[C@H](O)[C@@H](O)[C@H](O)CO", "note": "[Xylose]", "MBP+ mature oligodendrocyte number": -1}, {"smiles": "CC(=O)O[C@]1(C(C)=O)CC[C@H]2[C@@H]3C[C@H](C)C4=CC(=O)C=C[C@]4(C)[C@@]3(F)[C@@H](O)C[C@@]21C", "note": "[Fluorometholone Acetate]", "MBP+ mature oligodendrocyte number": 10.3}, {"smiles": "COc1ccc([C@@H]2CC(=O)c3c(O)cc(O[C@@H]4O[C@H](CO[C@@H]5O[C@@H](C)[C@H](O)[C@@H](O)[C@H]5O)[C@@H](O)[C@H](O)[C@H]4O)cc3O2)cc1O", "note": "[Hesperidin]", "MBP+ mature oligodendrocyte number": 1.23}, {"smiles": "O=c1cc(N2CCOCC2)oc2c(-c3cccc4c3sc3ccccc34)cccc12", "MBP+ mature oligodendrocyte number": -5.93}, {"smiles": "CC(C)(C(=O)O)c1ccc(C(O)CCCN2CCC(C(O)(c3ccccc3)c3ccccc3)CC2)cc1", "note": "(configuration not stated) [Fexofenadine hydrochloride]", "MBP+ mature oligodendrocyte number": 0.659}, {"smiles": "CC(C)(C(=O)O)c1ccc(C(O)CCCN2CCC(C(O)(c3ccccc3)c3ccccc3)CC2)cc1", "note": "(configuration not stated) [Fexofenadine HCl]", "MBP+ mature oligodendrocyte number": 1.53}, {"smiles": "CC(N)=NCCCC[C@H](N)C(=O)O", "note": "[L-N6-(1-Iminoethyl)lysine hydrochloride]", "MBP+ mature oligodendrocyte number": -0.206}, {"smiles": "Cc1ccc(O)c(N=Nc2ccccc2)n1", "MBP+ mature oligodendrocyte number": -0.318}, {"smiles": "COC(c1ccccc1)(c1ccccc1)[C@H](Oc1nc(C)cc(C)n1)C(=O)O", "note": "[Ambrisentan]", "MBP+ mature oligodendrocyte number": 0.115}, {"smiles": "COC(=O)C1=C(C)NC(C)=C(C(=O)OCCN2CCN(C(c3ccccc3)c3ccccc3)CC2)C1c1cccc([N+](=O)[O-])c1", "note": "(configuration not stated) [Manidipine 2HCl]", "MBP+ mature oligodendrocyte number": "< -4.81"}, {"smiles": "COC(=O)C1=C(C)NC(C)=C(C(=O)OCCN2CCN(C(c3ccccc3)c3ccccc3)CC2)C1c1cccc([N+](=O)[O-])c1", "note": "(configuration not stated) [Manidipine]", "MBP+ mature oligodendrocyte number": "< -4.81"}, {"smiles": "CC(C)N(C[C@H]1O[C@@H](n2cnc3c(N)ncnc32)[C@H](O)[C@@H]1O)[C@H]1C[C@@H](CCc2nc3cc(C(C)(C)C)ccc3[nH]2)C1", "MBP+ mature oligodendrocyte number": -3.14}, {"smiles": "COC(=O)C[C@H](NC(=O)[C@H](C)NC(=O)[C@@H](NC(=O)OCc1ccccc1)C(C)C)C(=O)CF", "MBP+ mature oligodendrocyte number": 1.89}, {"smiles": "CC(=O)Nc1ccccc1", "note": "[Acetanilide]", "MBP+ mature oligodendrocyte number": 0.619}, {"smiles": "COc1ccc(/C=C/c2nc(NCCCN(C)C)c3ccccc3n2)cc1", "MBP+ mature oligodendrocyte number": "< -3.85"}, {"smiles": "C[N+]1(C)[C@@H]2C[C@@H](OC(=O)C(O)(c3cccs3)c3cccs3)C[C@H]1[C@@H]1O[C@@H]12", "note": "[Tiotropium Bromide hydrate]", "MBP+ mature oligodendrocyte number": -0.164}, {"smiles": "CC(C)(C)C(=O)Oc1ccc(S(=O)(=O)Nc2ccccc2C(=O)NCC(=O)O)cc1", "note": "[Sivelestat sodium salt hydrate]", "MBP+ mature oligodendrocyte number": -0.167}, {"smiles": "CSc1ccc2c(c1)C(N1CCN(C)CC1)Cc1ccccc1S2", "note": "(configuration not stated) [Methiothepin mesylate]", "MBP+ mature oligodendrocyte number": -3.89}, {"smiles": "CC(C(=O)O)c1ccc2c(c1)Cc1cccnc1O2", "note": "(configuration not stated) [Pranoprofen]", "MBP+ mature oligodendrocyte number": 4.84}, {"smiles": "Nc1nc2c(c(=O)[nH]1)C[C@@H](CCc1ccc(C(=O)N[C@@H](CCC(=O)O)C(=O)O)cc1)CN2", "note": "[Lometrexol hydrate]", "MBP+ mature oligodendrocyte number": 0.225}, {"smiles": "CC1(C)S[C@@H]2[C@H](NC(=O)[C@H](NC(=O)N3CCNC3=O)c3ccccc3)C(=O)N2[C@H]1C(=O)O", "note": "[Azlocillin sodium salt]", "MBP+ mature oligodendrocyte number": 0.342}, {"smiles": "CC(C)c1ccc2oc3nc(N)c(C(=O)O)cc3c(=O)c2c1", "note": "[Amlexanox]", "MBP+ mature oligodendrocyte number": -0.786}, {"smiles": "CCn1c2ccccc2c2cc(Nc3ccnc(NCCCN4CCOCC4)n3)ccc21", "MBP+ mature oligodendrocyte number": "< -6.35"}, {"smiles": "O=C1[C@H](Cc2ccc(O)cc2)N2C(=O)CCN(C(=O)NCc3ccccc3)[C@H]2CN1Cc1cccc2ccccc12", "MBP+ mature oligodendrocyte number": "< -6.01"}, {"smiles": "Nc1nc2c(ncn2[C@@H]2O[C@H](CO)[C@@H](O)[C@H]2O)c(=O)[nH]1", "note": "[Guanosine]", "MBP+ mature oligodendrocyte number": 1.18}, {"smiles": "Cn1cc(-c2ccc3ncc(Cc4ccc5ncccc5c4)n3n2)cn1", "MBP+ mature oligodendrocyte number": -4.5}, {"smiles": "Cc1cc(NC(=O)Nc2ccc(N(C)C)cc2)c2cc(F)cc(F)c2n1", "MBP+ mature oligodendrocyte number": 29.4}, {"smiles": "Cc1onc(-c2c(Cl)cccc2Cl)c1C(=O)N[C@@H]1C(=O)N2[C@@H]1SC(C)(C)[C@@H]2C(=O)O", "note": "[Dicloxacillin Sodium]", "MBP+ mature oligodendrocyte number": 0.829}, {"smiles": "CN(C)/N=N/c1[nH]cnc1C(N)=O", "note": "[Dacarbazine]", "MBP+ mature oligodendrocyte number": 3.95}, {"smiles": "CCCCCC[C@@H]([C@@H](C)O)n1cnc2c(N)ncnc21", "note": "[erythro-9-(2-Hydroxy-3-nonyl)adenine hydrochloride]", "MBP+ mature oligodendrocyte number": 3.38}, {"smiles": "CC1C(=O)OC2C(O)C34C5CC(C(C)(C)C)C36C(OC(=O)C6O)OC4(C(=O)O5)C12O", "note": "(configuration not stated) [Ginkgolide B]", "MBP+ mature oligodendrocyte number": 1.68}, {"smiles": "C[N+](C)(C)CCCCCC[N+](C)(C)C", "note": "[Hexamethonium dichloride]", "MBP+ mature oligodendrocyte number": 0.45}, {"smiles": "C[N+](C)(C)CCCCCC[N+](C)(C)C", "note": "[Hexamethonium bromide]", "MBP+ mature oligodendrocyte number": -0.23}, {"smiles": "CCCCCCCCc1ccc(-c2ccc(C(=O)O)cc2)cc1", "MBP+ mature oligodendrocyte number": -0.675}, {"smiles": "CC1CC(OC(=O)C(O)c2ccccc2)CC(C)(C)C1", "note": "(configuration not stated) [Cyclandelate]", "MBP+ mature oligodendrocyte number": 4.8}, {"smiles": "Cc1oncc1C(=O)Nc1ccc(C(F)(F)F)cc1", "note": "[Leflunomide]", "MBP+ mature oligodendrocyte number": "-0.112 ± 0.19"}, {"smiles": "O=C(O)c1cccnc1Nc1cccc(C(F)(F)F)c1", "note": "[Niflumic acid]", "MBP+ mature oligodendrocyte number": "1.17 ± 0.73"}, {"smiles": "Cc1cn([C@H]2O[C@@H](CO)[C@H](O)[C@H]2F)c(=O)[nH]c1=O", "note": "[Clevudine]", "MBP+ mature oligodendrocyte number": 3.2}, {"smiles": "Cc1cn(C2C=CC(CO)O2)c(=O)[nH]c1=O", "note": "(configuration not stated) [2',3'-didehydro-3'-deoxythymidine]", "MBP+ mature oligodendrocyte number": -0.439}]}]}
